From the supplement of paper PMC12217912
This is one part of the list. The full chains were built here from the parent and the listed change. Inactive controls read about 0.05.

B1: TEV protease; numbered along this chain (parent)
chain: MGESLFKGPRDYNPISSSICHLTNESDGHTTSLYGIGFGPFIITNKHLFRRNNGTLVVQSLHGVFKVKDTTTLQQHLVDGRDMIIIRMPKDFPPFPQKLKFREPQREERICLVTTNFQTKSMSSMVSDTSCTFPSGDGIFWKHWIQTKDGQCGSPLVSTRDGFIVGIHSASNFTNTNNYFTSVPKNFMELLTNQEAQQWVSGWRLNADSVLWGGHKVFMVKPEEPFQPVKEATQL

Variants of: B1
Assay: raw area under fraction-flipped curve 0-4 h after induction (AUC4h, not background-subtracted), DNA-recorder readout of cleavage of the substrate (dimensionless); higher = more cleavage of the substrate by the protease variant
Settings: temperature: 34 °C; time window: 0-4 h after rhamnose induction
Method: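 In vivo DNA recorder in E. coli TOP10(DE3) ΔrhaA at 34 °C. Each TEVp single-site mutant (parent TEVp 0) is paired with a single-site variant of the 7-mer TEVs (canonical ENLYFQ|S). The substrate sits between flexible linkers in a Bxb1-sfGFP-TEVs-SsrA fusion, so cleavage stabilises Bxb1 and speeds flipping of a recombination array, read by NGS. The value is the raw area under the fraction-flipped curve over 0-4 h after rhamnose induction (AUC4h), with ≥20 reads per time point. It is not background-subtracted; inactive controls average about 0.047.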
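Note: Bxb1 expression induced with 0.2% (w/v) L-rhamnose at OD600 near 0.5, cultures sampled hourly, flipped fraction per protease–substrate barcode pair counted by paired-end Illumina sequencing.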

Variant | area with substrate CNLYFQS | area with substrate DNLYFQS | area with substrate GNLYFQS | area with substrate HNLYFQS | area with substrate NNLYFQS | area with substrate PNLYFQS | area with substrate QNLYFQS | area with substrate TNLYFQS | area with substrate VNLYFQS | area with substrate WNLYFQS | area with substrate YNLYFQS | area with substrate INLYFQS | area with substrate FNLYFQS | area with substrate SNLYFQS | area with substrate KNLYFQS | area with substrate LNLYFQS | area with substrate MNLYFQS
MGESLFKGPRDYNPISSSICHLTNESDGHTTSLYGIGFGPFIITNKHLFRRNNGTLVVQSLHGVFKVKDTTTLQQHLVDGRDMIIIRMPKDFPPFPQKLKFREPQREERICLVTTNFQTKSMSSMVSDTICTFPSGDGIFWKHWIQTKDGQCGSPLVSTRDGFIVGIHSASNFTNTNNYFTSVPKNFMELLTNQEAQQWVSGWRLNADSVLWGGHKVFMVKPEEPFQPVKEATQL [S130I] | 0.0656 | 0.161 | 0.0847 | 0.0635 | 0.0781 | 0.0598 | 0.0742 | 0.0655 | 0.0643 | 0.0621 | 0.0476 |  |  |  |  |  | 
MGESLFKGPRDYNPISSSICHLTNESDGHTTSLYGIGFGPFIITNKHLFRRNNGTLVVQSLHGVFKVKDTTTLQQHLVDGRDMIIIRMPKDFPPFPQKLKFREPQREERICLVTTNFQTKSMSSMVSDTPCTFPSGDGIFWKHWIQTKDGQCGSPLVSTRDGFIVGIHSASNFTNTNNYFTSVPKNFMELLTNQEAQQWVSGWRLNADSVLWGGHKVFMVKPEEPFQPVKEATQL [S130P] | 0.0322 | 0.082 | 0.0488 | 0.0283 | 0.0293 | 0.0486 | 0.0396 | 0.0489 | 0.0347 |  |  | 0.0543 |  |  |  |  | 
MGESLFKGPRDYNPISSSICHLTNESDGHTTSLYGIGFGPFIITNKHLFRRNNGTLVVQSLHGVFKVKDTTTLQQHLVDGRDMIIIRMPKDFPPFPQKLKFREPQREERICLVTTNFQTKSMSSMVSDTSCQFPSGDGIFWKHWIQTKDGQCGSPLVSTRDGFIVGIHSASNFTNTNNYFTSVPKNFMELLTNQEAQQWVSGWRLNADSVLWGGHKVFMVKPEEPFQPVKEATQL [T132Q] | 0.06 | 0.0603 | 0.0644 | 0.0644 | 0.0655 |  | 0.0699 | 0.0752 |  |  | 0.0579 |  | 0.0522 | 0.0629 |  |  | 
MGESLFKGPRDYNPISSSICHLTNESDGHTTSLYGIGFGPFIITNKHLFRRNNGTLVVQSLHGVFKVKDTTTLQQHLVDGRDMIIIRMPKDFPPFPQKLKFREPQREERICLVTTNFQTKSMSSMVSDTSDTFPSGDGIFWKHWIQTKDGQCGSPLVSTRDGFIVGIHSASNFTNTNNYFTSVPKNFMELLTNQEAQQWVSGWRLNADSVLWGGHKVFMVKPEEPFQPVKEATQL [C131D] | 0.0829 | 0.0704 | 0.0662 | 0.0732 |  |  |  |  |  | 0.0652 | 0.0588 |  |  |  | 0.0735 | 0.0778 | 
MGESLFKGPRDYNPISSSICHLTNESDGHTTSLYGIGFGPFIITNKHLFRRNNGTLVVQSLHGVFKVKDTTTLQQHLVDGRDMIIIRMPKDFPPFPQKLKFREPQREERICLVTTNFQTKSMSSRVSDTSCTFPSGDGIFWKHWIQTKDGQCGSPLVSTRDGFIVGIHSASNFTNTNNYFTSVPKNFMELLTNQEAQQWVSGWRLNADSVLWGGHKVFMVKPEEPFQPVKEATQL [M125R] | 0.0774 | 0.0794 |  | 0.0668 | 0.0758 | 0.0725 |  | 0.0726 |  | 0.0455 |  | 0.0416 | 0.0885 | 0.0818 |  |  | 0.0792
MGESLFKGPRDYNPISSSICHLTNESDGHTTSLYGIGFGPFIITNKHLFRRNNGTLVVQSLHGVFKVKDTTTLQQHLVDGRDMIIIRMPKDFPPFPQKLKFREPQREERICLVTTNFQTKSMSSSVSDTSCTFPSGDGIFWKHWIQTKDGQCGSPLVSTRDGFIVGIHSASNFTNTNNYFTSVPKNFMELLTNQEAQQWVSGWRLNADSVLWGGHKVFMVKPEEPFQPVKEATQL [M125S] | 0.0598 | 0.0611 | 0.0572 | 0.0712 |  | 0.0675 |  | 0.0096 |  | 0.0689 | 0.0624 | 0.0577 |  | 0.0624 |  | 0.0724 | 
MGESLFKGPRDYNPISSSICHLTNESDGHTTSLYGIGFGPFIITNKHLFRRNNGTLVVQSLHGVFKVKDTTTLQQHLVDGRDMIIIRMPKDFPPFPQKLKFREPQREERICLVTTNFQTKSMSSMVSDCSCTFPSGDGIFWKHWIQTKDGQCGSPLVSTRDGFIVGIHSASNFTNTNNYFTSVPKNFMELLTNQEAQQWVSGWRLNADSVLWGGHKVFMVKPEEPFQPVKEATQL [T129C] | 0.055 | 0.0867 |  |  | 0.0728 |  |  | 0.0777 |  | 0.0637 |  | 0.0724 |  | 0.0558 | 0.0644 | 0.0694 | 
MGESLFKGPRDYNPISSSICHLTNESDGHTTSLYGIGFGPFIITNKHLFRRNNGTLVVQSLHGVFKVKDTTTLQQHLVDGRDMIIIRMPKDFPPFPQKLKFREPQREERICLVTTNFQTKSMSSMVSDFSCTFPSGDGIFWKHWIQTKDGQCGSPLVSTRDGFIVGIHSASNFTNTNNYFTSVPKNFMELLTNQEAQQWVSGWRLNADSVLWGGHKVFMVKPEEPFQPVKEATQL [T129F] | 0.0757 | 0.0619 | 0.0818 | 0.0564 | 0.0614 | 0.0551 | 0.0465 | 0.0548 | 0.0558 | 0.0601 | 0.0617 |  |  | 0.0507 | 0.0753 |  | 0.0679
MGESLFKGPRDYNPISSSICHLTNESDGHTTSLYGIGFGPFIITNKHLFRRNNGTLVVQSLHGVFKVKDTTTLQQHLVDGRDMIIIRMPKDFPPFPQKLKFREPQREERICLVTTNFQTKSMSSMVSDVSCTFPSGDGIFWKHWIQTKDGQCGSPLVSTRDGFIVGIHSASNFTNTNNYFTSVPKNFMELLTNQEAQQWVSGWRLNADSVLWGGHKVFMVKPEEPFQPVKEATQL [T129V] | 0.0693 | 0.0896 | 0.0878 | 0.0639 |  | 0.0733 | 0.0664 | 0.0681 |  | 0.046 | 0.0553 | 0.0615 |  | 0.0474 | 0.0645 | 0.0575 | 0.0637
MGESLFKGPRDYNPISSSICHLTNESDGHTTSLYGIGFGPFIITNKHLFRRNNGTLVVQSLHGVFKVKDTTTLQQHLVDGRDMIIIRMPKDFPPFPQKLKFREPQREERICLVTTNFQTKSMSSMVMDTSCTFPSGDGIFWKHWIQTKDGQCGSPLVSTRDGFIVGIHSASNFTNTNNYFTSVPKNFMELLTNQEAQQWVSGWRLNADSVLWGGHKVFMVKPEEPFQPVKEATQL [S127M] | 0.0764 | 0.0909 | 0.0719 | 0.13 | 0.0641 | 0.0744 | 0.0694 | 0.0643 |  | 0.0572 |  | 0.0617 |  | 0.0648 | 0.0652 |  | 
